# Results as given in publication PMC12820563, “FoxP3 forms a head-to-head dimer in vivo and stabilizes its multimerization on adjacent microsatellites”.
# The list shows a part of the results.
# Target: T1, MBP-FoxP1dN (Mus musculus, UniProt P58462 326-579)
# T1 sequence: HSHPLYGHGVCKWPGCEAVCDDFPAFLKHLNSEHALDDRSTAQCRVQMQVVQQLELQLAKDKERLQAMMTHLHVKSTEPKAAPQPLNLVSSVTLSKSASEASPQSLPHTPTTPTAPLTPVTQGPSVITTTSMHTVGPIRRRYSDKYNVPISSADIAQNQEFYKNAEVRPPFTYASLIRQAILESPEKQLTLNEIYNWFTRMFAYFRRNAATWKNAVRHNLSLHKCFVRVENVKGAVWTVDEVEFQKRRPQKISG
# Assay: PD-seq (MBP pull-down with sequencing); 20 mM Tris-HCl pH 7.5, 100 mM NaCl, 1.5 mM MgCl2, 0.4 uM protein, 0.1 uM dsDNA library, 30 min, room temperature, amylose pull-down; high values mean tight binding
# Conditions: protein: recombinant; tags: His6-MBP; chain copies: 2; dsDNA, one strand shown
# How it was run: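 In Tris pH 7.5 buffer with NaCl and MgCl2, 0.4 µM His6-MBP-tagged mouse FoxP3 or FoxP1 fragment lacking the N-terminus, from E. coli, met 0.1 µM Klenow-filled double-stranded degenerate DNA library for 30 min at room temperature. Three washes on amylose resin followed capture of the complexes, then proteinase K release of DNA, PCR barcoding and Illumina sequencing. Binding is taken as pooled-replicate reads-per-million enrichment of pull-down relative to input.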
row,Sequence,binding signal
1,GATGATTGTTCTCCCAGCTGATGAATTTGCCCAATCGAGTAAACAAATTTTCCTAATCTTTCTGTTCAAGCGCCATCTAC,1.06 RPM ratio (pull-down/input)
2,GATGATTGTTCTCCCAGCTGATGAATTGCAACGGTCGAGTAAACAAATTTTCCTAATCTTTCTGTTCAAGCGCCATCTAC,1.11 RPM ratio (pull-down/input)
3,GATGATTGTTCTCCCAGCTGATGAATTAGACAACTCGAGTAAACAAATTTTCCTAATCTTTCTGTTCAAGCGCCATCTAC,1.16 RPM ratio (pull-down/input)
4,GATGATTGTTCTCCCAGCTGATGAATTATGTAAATCGAGTAAACAAATTTTCCTAATCTTTCTGTTCAAGCGCCATCTAC,1.47 RPM ratio (pull-down/input)
5,GATGATTGTTCTCCCAGCTGATGAATTGATCGGCTCGAGTAAACAAATTTTCCTAATCTTTCTGTTCAAGCGCCATCTAC,0.783 RPM ratio (pull-down/input)
6,GATGATTGTTCTCCCAGCTGATGAATTCCAAACCTCGAGTAAACAAATTTTCCTAATCTTTCTGTTCAAGCGCCATCTAC,0.78 RPM ratio (pull-down/input)
7,GATGATTGTTCTCCCAGCTGATGAATTAGGCAAATCGAGTAAACAAATTTTCCTAATCTTTCTGTTCAAGCGCCATCTAC,1.1 RPM ratio (pull-down/input)
8,GATGATTGTTCTCCCAGCTGATGAATTTCAATAGTCGAGTAAACAAATTTTCCTAATCTTTCTGTTCAAGCGCCATCTAC,0.89 RPM ratio (pull-down/input)
9,GATGATTGTTCTCCCAGCTGATGAATTCGTGTGCTCGAGTAAACAAATTTTCCTAATCTTTCTGTTCAAGCGCCATCTAC,0.9 RPM ratio (pull-down/input)
10,GATGATTGTTCTCCCAGCTGATGAATTTCGCCTATCGAGTAAACAAATTTTCCTAATCTTTCTGTTCAAGCGCCATCTAC,0.843 RPM ratio (pull-down/input)
11,GATGATTGTTCTCCCAGCTGATGAATTGAACAGTTCGAGTAAACAAATTTTCCTAATCTTTCTGTTCAAGCGCCATCTAC,0.869 RPM ratio (pull-down/input)
12,GATGATTGTTCTCCCAGCTGATGAATTAACGTAGTCGAGTAAACAAATTTTCCTAATCTTTCTGTTCAAGCGCCATCTAC,0.937 RPM ratio (pull-down/input)
13,GATGATTGTTCTCCCAGCTGATGAATTAAGACGTTCGAGTAAACAAATTTTCCTAATCTTTCTGTTCAAGCGCCATCTAC,0.984 RPM ratio (pull-down/input)
14,GATGATTGTTCTCCCAGCTGATGAATTTGATGGCTCGAGTAAACAAATTTTCCTAATCTTTCTGTTCAAGCGCCATCTAC,0.787 RPM ratio (pull-down/input)
15,GATGATTGTTCTCCCAGCTGATGAATTACAGACCTCGAGTAAACAAATTTTCCTAATCTTTCTGTTCAAGCGCCATCTAC,0.949 RPM ratio (pull-down/input)
16,GATGATTGTTCTCCCAGCTGATGAATTTAACGGATCGAGTAAACAAATTTTCCTAATCTTTCTGTTCAAGCGCCATCTAC,0.828 RPM ratio (pull-down/input)
17,GATGATTGTTCTCCCAGCTGATGAATTTGTAGCGTCGAGTAAACAAATTTTCCTAATCTTTCTGTTCAAGCGCCATCTAC,0.985 RPM ratio (pull-down/input)
18,GATGATTGTTCTCCCAGCTGATGAATTAGTAAGGTCGAGTAAACAAATTTTCCTAATCTTTCTGTTCAAGCGCCATCTAC,0.892 RPM ratio (pull-down/input)
19,GATGATTGTTCTCCCAGCTGATGAATTTTCGCCTTCGAGTAAACAAATTTTCCTAATCTTTCTGTTCAAGCGCCATCTAC,0.933 RPM ratio (pull-down/input)
20,GATGATTGTTCTCCCAGCTGATGAATTAGTTCGATCGAGTAAACAAATTTTCCTAATCTTTCTGTTCAAGCGCCATCTAC,0.964 RPM ratio (pull-down/input)

row,Sequence,binding signal
1,GATGATTGTTCTCCCAGCTGATGAATTACCTCCATCGAGTAAACAAATTTTCCTAATCTTTCTGTTCAAGCGCCATCTAC,0.936 RPM ratio (pull-down/input)
2,GATGATTGTTCTCCCAGCTGATGAATTGCCCGATTCGAGTAAACAAATTTTCCTAATCTTTCTGTTCAAGCGCCATCTAC,0.947 RPM ratio (pull-down/input)
3,GATGATTGTTCTCCCAGCTGATGAATTTTACTATTCGAGTAAACAAATTTTCCTAATCTTTCTGTTCAAGCGCCATCTAC,0.945 RPM ratio (pull-down/input)
4,GATGATTGTTCTCCCAGCTGATGAATTCCCATCATCGAGTAAACAAATTTTCCTAATCTTTCTGTTCAAGCGCCATCTAC,0.937 RPM ratio (pull-down/input)
5,GATGATTGTTCTCCCAGCTGATGAATTGTGACTCTCGAGTAAACAAATTTTCCTAATCTTTCTGTTCAAGCGCCATCTAC,1.04 RPM ratio (pull-down/input)
6,GATGATTGTTCTCCCAGCTGATGAATTTCTCATTTCGAGTAAACAAATTTTCCTAATCTTTCTGTTCAAGCGCCATCTAC,0.877 RPM ratio (pull-down/input)
7,GATGATTGTTCTCCCAGCTGATGAATTACTTAACTCGAGTAAACAAATTTTCCTAATCTTTCTGTTCAAGCGCCATCTAC,1.12 RPM ratio (pull-down/input)
8,GATGATTGTTCTCCCAGCTGATGAATTTCGAAACTCGAGTAAACAAATTTTCCTAATCTTTCTGTTCAAGCGCCATCTAC,0.842 RPM ratio (pull-down/input)
9,GATGATTGTTCTCCCAGCTGATGAATTGCGCCCCTCGAGTAAACAAATTTTCCTAATCTTTCTGTTCAAGCGCCATCTAC,0.966 RPM ratio (pull-down/input)
10,GATGATTGTTCTCCCAGCTGATGAATTGGAGGGGTCGAGTAAACAAATTTTCCTAATCTTTCTGTTCAAGCGCCATCTAC,0.734 RPM ratio (pull-down/input)
11,GATGATTGTTCTCCCAGCTGATGAATTTTCGTGGTCGAGTAAACAAATTTTCCTAATCTTTCTGTTCAAGCGCCATCTAC,0.888 RPM ratio (pull-down/input)
12,GATGATTGTTCTCCCAGCTGATGAATTACCGCTTTCGAGTAAACAAATTTTCCTAATCTTTCTGTTCAAGCGCCATCTAC,1.09 RPM ratio (pull-down/input)
13,GATGATTGTTCTCCCAGCTGATGAATTGATACTGTCGAGTAAACAAATTTTCCTAATCTTTCTGTTCAAGCGCCATCTAC,1.13 RPM ratio (pull-down/input)
14,GATGATTGTTCTCCCAGCTGATGAATTCCCCAAGTCGAGTAAACAAATTTTCCTAATCTTTCTGTTCAAGCGCCATCTAC,0.788 RPM ratio (pull-down/input)
15,GATGATTGTTCTCCCAGCTGATGAATTCTAATAGTCGAGTAAACAAATTTTCCTAATCTTTCTGTTCAAGCGCCATCTAC,0.905 RPM ratio (pull-down/input)
16,GATGATTGTTCTCCCAGCTGATGAATTCTGGCGATCGAGTAAACAAATTTTCCTAATCTTTCTGTTCAAGCGCCATCTAC,0.805 RPM ratio (pull-down/input)
17,GATGATTGTTCTCCCAGCTGATGAATTTCTCTTATCGAGTAAACAAATTTTCCTAATCTTTCTGTTCAAGCGCCATCTAC,0.952 RPM ratio (pull-down/input)
18,GATGATTGTTCTCCCAGCTGATGAATTAAAAGGATCGAGTAAACAAATTTTCCTAATCTTTCTGTTCAAGCGCCATCTAC,0.837 RPM ratio (pull-down/input)
19,GATGATTGTTCTCCCAGCTGATGAATTCTGCGGTTCGAGTAAACAAATTTTCCTAATCTTTCTGTTCAAGCGCCATCTAC,0.783 RPM ratio (pull-down/input)
20,GATGATTGTTCTCCCAGCTGATGAATTAGTGAGTTCGAGTAAACAAATTTTCCTAATCTTTCTGTTCAAGCGCCATCTAC,0.965 RPM ratio (pull-down/input)
